PMC4098744, “Systematic family‐wide analysis of sodium bicarbonate cotransporter NBCn1/SLC4A7 interactions with PDZ scaffold proteins” (Physiological Reports, 2014)
These are yes or no findings as the source states them, for the method shown. For part of these data: In cells and extracts the contact can be indirect. Some binding calls cover weakened binding; strength is not graded here. Tags and fused reporters may be left off the sequences shown. Each block holds one binder with its values, some of them ahead of it.

Amino acid sequences for entries named in this document (tags omitted). Residues count along the entry.
UniProt Q96RT1, residues 1321-1410: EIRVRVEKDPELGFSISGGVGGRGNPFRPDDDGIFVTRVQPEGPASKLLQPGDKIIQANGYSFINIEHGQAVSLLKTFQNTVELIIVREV
UniProt Q15599, residues 150-230: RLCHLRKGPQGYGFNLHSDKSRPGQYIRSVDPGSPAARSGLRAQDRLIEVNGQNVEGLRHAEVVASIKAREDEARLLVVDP

Key:
[1] = molecular target: T1, GST/NBCn1 fusion protein containing the C‐terminal 131 amino acids of rat NBCn1 (rat) (UniProt Q9R1N3); assay: pull-down; GST/NBCn1 (C-terminal 131 amino acids) on Glutathione-Sepharose beads incubated with membrane and cytosolic lysates of Xenopus oocytes expressing syntrophin γ2, 4°C, 4 h, PBS with 0.5% Nonidet P-40; blot with syntrophin γ2 antibody; only the target purified
T1 sequence: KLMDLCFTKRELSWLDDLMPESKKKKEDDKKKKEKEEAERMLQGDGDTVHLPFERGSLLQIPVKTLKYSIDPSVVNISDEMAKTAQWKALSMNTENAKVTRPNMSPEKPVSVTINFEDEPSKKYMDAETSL

GST/Syn‐ΔPDZ (human) = molecular target: T2, GST/Syn‐ΔPDZ (human) (UniProt Q9NY99); assay: pull-down; GST/syntrophin γ2 constructs on Glutathione-Sepharose beads incubated with lysates of Xenopus oocytes expressing rat NBCn1, 4°C, 4 h, PBS with 0.5% Nonidet P-40; blot with NBCn1 antibody; only the target purified
T2 sequence: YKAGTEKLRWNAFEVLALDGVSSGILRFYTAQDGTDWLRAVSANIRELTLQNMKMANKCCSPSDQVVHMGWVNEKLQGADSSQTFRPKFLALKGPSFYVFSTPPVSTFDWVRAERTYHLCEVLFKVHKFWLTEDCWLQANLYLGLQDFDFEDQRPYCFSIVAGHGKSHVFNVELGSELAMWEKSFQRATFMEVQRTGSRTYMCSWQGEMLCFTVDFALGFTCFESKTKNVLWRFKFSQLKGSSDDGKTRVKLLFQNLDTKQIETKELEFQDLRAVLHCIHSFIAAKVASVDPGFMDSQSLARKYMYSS

GST/Syn‐PDZ (human) = molecular target: T3, GST/Syn‐PDZ (human) (UniProt Q9NY99); assay: as above
T3 sequence: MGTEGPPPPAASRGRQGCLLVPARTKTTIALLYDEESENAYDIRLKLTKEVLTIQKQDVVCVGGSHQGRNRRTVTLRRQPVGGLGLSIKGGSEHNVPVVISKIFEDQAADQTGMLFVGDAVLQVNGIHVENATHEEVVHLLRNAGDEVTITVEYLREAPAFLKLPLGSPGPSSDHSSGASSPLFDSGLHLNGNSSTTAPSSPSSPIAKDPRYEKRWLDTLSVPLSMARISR

[2] = molecular target: T4, syntrophin β2 (PDZ domain on the array) (UniProt Q13425); assay: peptide or protein array; PDZ filter overlay: 96 Class I PDZ domains spotted on a nylon membrane; overlaid with 100 nmol/L GST/NBCn1 (or GST only) in blot buffer (50 mmol/L NaCl, 2% dry milk, 0.1% Tween 20, 10 mmol/L HEPES; pH 7.4) for 1 h at room temperature; detected with HRP-conjugated anti-GST antibody; done three times; both purified
T4 sequence: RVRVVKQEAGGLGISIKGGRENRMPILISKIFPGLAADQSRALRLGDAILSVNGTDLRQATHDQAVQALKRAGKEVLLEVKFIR

[3] = molecular target: ERBIN (PDZ domain on the array) (UniProt Q96RT1); assay: as above
NHERF‐1 (PDZ domain 1) = molecular target: T5, NHERF‐1 (PDZ domain 1) (UniProt O14745); assay: as above
T5 sequence: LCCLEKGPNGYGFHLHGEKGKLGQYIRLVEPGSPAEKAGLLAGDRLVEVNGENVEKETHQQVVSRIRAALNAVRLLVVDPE

[4] = molecular target: T6, syntrophin γ2 (PDZ domain on the array) (UniProt Q9NY99); assay: as above
T6 sequence: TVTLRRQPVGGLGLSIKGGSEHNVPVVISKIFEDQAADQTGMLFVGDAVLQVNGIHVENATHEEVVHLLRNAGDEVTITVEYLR

MUPP1 (PDZ domain 7) = molecular target: T7, MUPP1 (PDZ domain 7) (UniProt O75970); assay: as above
T7 sequence: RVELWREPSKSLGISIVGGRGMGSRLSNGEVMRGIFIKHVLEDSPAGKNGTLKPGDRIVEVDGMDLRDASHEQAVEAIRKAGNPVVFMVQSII

PDZK1 (PDZ domain 1) = molecular target: T8, PDZK1 (PDZ domain 1) (UniProt Q5T2W1); assay: as above
T8 sequence: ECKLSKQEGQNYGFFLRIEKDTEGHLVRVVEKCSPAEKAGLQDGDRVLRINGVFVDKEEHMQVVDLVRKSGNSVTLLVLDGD

NHERF‐2 (PDZ domain 2) = NHERF‐2 (PDZ domain 2) (UniProt Q15599); assay: as above
[5] = molecular target: T9, syntrophin α1 (PDZ domain on the array) (UniProt Q13424); assay: as above
T9 sequence: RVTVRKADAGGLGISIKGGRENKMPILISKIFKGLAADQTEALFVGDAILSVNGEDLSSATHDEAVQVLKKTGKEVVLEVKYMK

[6] = molecular target: T10, MALS‐1 (PDZ domain on the array) (UniProt O14910); assay: as above
T10 sequence: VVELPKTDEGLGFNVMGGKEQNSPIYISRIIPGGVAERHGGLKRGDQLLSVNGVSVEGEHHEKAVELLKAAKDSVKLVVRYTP

binding [1]: binds
B1: syntrophin γ2 expressed in Xenopus oocytes (protein, UniProt Q9NY99 1-539)
chain: MGTEGPPPPAASRGRQGCLLVPARTKTTIALLYDEESENAYDIRLKLTKEVLTIQKQDVVCVGGSHQGRNRRTVTLRRQPVGGLGLSIKGGSEHNVPVVISKIFEDQAADQTGMLFVGDAVLQVNGIHVENATHEEVVHLLRNAGDEVTITVEYLREAPAFLKLPLGSPGPSSDHSSGASSPLFDSGLHLNGNSSTTAPSSPSSPIAKDPRYEKRWLDTLSVPLSMARISRYKAGTEKLRWNAFEVLALDGVSSGILRFYTAQDGTDWLRAVSANIRELTLQNMKMANKCCSPSDQVVHMGWVNEKLQGADSSQTFRPKFLALKGPSFYVFSTPPVSTFDWVRAERTYHLCEVLFKVHKFWLTEDCWLQANLYLGLQDFDFEDQRPYCFSIVAGHGKSHVFNVELGSELAMWEKSFQRATFMEVQRTGSRTYMCSWQGEMLCFTVDFALGFTCFESKTKNVLWRFKFSQLKGSSDDGKTRVKLLFQNLDTKQIETKELEFQDLRAVLHCIHSFIAAKVASVDPGFMDSQSLARKYMYSS

binding (GST/Syn‐ΔPDZ (human)): no binding
binding (GST/Syn‐PDZ (human)): binds
B2: rat NBCn1 expressed in Xenopus oocytes (protein, UniProt Q9R1N3-2 1-1254)
chain: MEADGAGEQMRPLLTRGPDEEAVVDLGKTSSTVNTKFEKEELESHRAVYVGVHVPFSKESRRRHRHRGHKHHHRRRKDKDSDKEDGRESPSYDTPSQRVQFILGTEDDDEEHIPHDLFTEMDELCYRDGEEYEWKETARWLKFEEDVEDGGDRWSKPYVATLSLHSLFELRSCILNGTVMLDMRASTLDEIADMVLDNMIASGQLDDSIRENVREALLKRHHHQNEKRFTSRIPLVRSFADIGKKHSDPHLLERNGEGLSASRHSLRTGLSASNLSLRGESPLSLLLSHLLPSSRAGTPAGSRCTTPVPTPQNSPPSSPSLSRLTSRSSQQTQPQAPEVLVSPDRDDIPRVVIHPPEEDIEALKGQEQKNEENTDFTPGILASPQSAPGNLDSSKSGEVKGNGSGGSRENSTVDFSKVDMNFMRKIPTGAEASNVLVGEVDFLERPIIAFVRLAPAVLLSGLTEVPVPTRFLFLLLGPAGKAPQYHEIGRSIATLMTDEIFHDVAYKAKDRNDLLSGIDEFLDQVTVLPPGEWDPSIRIEPPKSVPSQEKRKIPAFPNGSAPVSADPPKEADHHAGPELQRTGRLFGGLILDIKRKAPFFLSDFKDALSLQCLASILFLYCACMSPVITFGGLLGEATEGRISAIESLFGASLTGIAYSLFAGQPLTILGSTGPVLVFEKILFKFCRDYHLSYLSLRTSIGLWTSFLCIVLVATDASSLVCYITRFTEEAFAALICIIFIYEALEKLFHLGEIYAFNMHNNLDALTSYTCVCAEPSNPSNETVELWERKNVTAASISWANLTVSECKTFHGMFVGSACGPHGPYVPDVLFWCVVLFFTTFFLSSFLKQFKTKRYFPTKVRSTISDFAVFLTIVIMVAIDYLVGIPSPKLHVPEKFEPTDPSRGWIISPLGDNPWWTLLIAAVPALLCTILIFMDQQITAVIINRKEHKLKKGAGYHLDLLMVAVMLGVCSIMGLPWFVAATVLSISHVNSLKVESECSAPGEQPKFLGIREQRVTGLMIFILMGLSVFMTSVLKFIPMPVLYGVFLYMGVSSLKGIQFFDRIKLFGMPAKHQPDLIYLRYVPLWKVHVFTVVQLTCLVLLWVIKASAAAVVFPMMVLALVFVRKLMDLCFTKRELSWLDDLMPESKKKKEDDKKKKEKEEAERMLQGDGDTVHLPFERGSLLQIPVKTLKYSIDPSVVNISDEMAKTAQWKALSMNTENAKVTRPNMSPEKPVSVTINFEDEPSKKYMDAETSL

binding [2]: binds
binding [3]: binds
binding (NHERF‐1 (PDZ domain 1)): binds
binding [4]: binds
binding (MUPP1 (PDZ domain 7)): binds
binding (PDZK1 (PDZ domain 1)): binds
binding (NHERF‐2 (PDZ domain 2)): binds
binding [5]: binds
binding [6]: binds weakly
B3: GST/NBCn1 fusion protein containing the C‐terminal 26 amino acids of rat NBCn1 (domain or fragment, UniProt Q9R1N3-2 1229-1254, looked up)
chain: PEKPVSVTINFEDEPSKKYMDAETSL
notes: NBCn1 (SLC4A7), rat, the C-terminal 26 amino acids; also called C‐terminal domain of NBCn1 fused to GST; source: prepared as described previously (Lee et al. 2012)
